Assay results reported in PubChem BioAssay AID686971 (National Center for Advancing Translational Sciences (NCATS), 2013).
In all, about 360,000 compounds went through this assay and about 7,500 (2.1%) were called active. The inconclusive results got no clear call from the source; some entries with a clear call stand among them for comparison. Calls come from the whole dose curve; as a rule, active = well fitted cell-killing curve with a large enough effect; inconclusive = small, poorly fitted or top-dose-only effect, or effect the other way, or another doubt; inactive = no such curve, though single readings can be large or run the other way. Potencies of inconclusive entries are left out as doubtful fits.

test: qHTS for induction of synthetic lethality in tumor cells producing 2HG: qHTS for the HT-1080-IDH1KD cell line; settings: HT-1080 IDH1 knockdown viability, ATP luminescence, 48 h; activity, negative = toxicity: at 46.1 µM (top of the series) unless noted;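 for activity, negative = toxicity: 0% = DMSO wells and -100% = cell-free medium wells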
Outline: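 Assay cells: HT-1080 with IDH1 knockdown, 750 per well, RPMI/5% FBS. Exposure: 48 h at 37 °C following 2 h pre-incubation. Read: CellTiter-Glo luminescence; fitted concentration-response, curve class assigned.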
Potency is the fitted concentration of half-maximal effect; tags give direction and shape of the fitted curve.

Compound	Potency	activity, negative = toxicity
COc1ccccc1-c1cnc(C(O)c2cc(Cl)cc(Cl)c2)[nH]1 (configuration not stated)	inconclusive [cytotoxic, single point]	–
CC[n+]1c(C)cc2c(sc3ccccc32)c1C	inconclusive [cytotoxic, full curve, poor fit]	–
Nc1nc(N)c2[nH]cnc2n1	inconclusive [cytotoxic, single point]	–
CC1(C)CC[C@]2(C(=O)n3ccnc3)CC[C@]3(C)[C@H](C(=O)C=C4[C@@]5(C)C=C(C#N)C(=O)C(C)(C)[C@@H]5CC[C@]43C)[C@@H]2C1	active: 3.66 µM	–
NC(=O)C1CCN(C(=O)OCc2ccccc2)CC1	inactive	–
Cc1cc2occ(CC(=O)Nc3nccs3)c2cc1C(C)C	inconclusive [cytotoxic, single point]	–
Cc1ccc(Sc2ccc(/C=N/O)cc2[N+](=O)[O-])cc1	inconclusive [cytotoxic, single point]	–
COc1cc(/C=N/N2CCN(C3c4ccccc4-c4ccccc43)CC2)ccc1O	inconclusive [cytotoxic, single point]	–
Cc1cc(N2CCN(C(=O)Oc3ccc([N+](=O)[O-])cc3)CC2)c2ccccc2n1	inconclusive [cytotoxic, single point]	–
C=C(C)c1nc(Oc2ccccc2)nc(Oc2ccccc2)n1	inconclusive [cytotoxic, single point]	–
Cc1onc(C(=O)N2CCC(Cc3ccccc3)CC2)c1[N+](=O)[O-]	active: 10.3 µM	–
CNc1ccc(/C=C2\CSc3ccccc3C2=O)cc1[N+](=O)[O-]	inconclusive [cytotoxic, single point]	–
N=c1n(CCN2CCCC2)c2ccccc2n1CC(O)c1ccc(Cl)c(Cl)c1 (configuration not stated)	inconclusive [cytotoxic, single point]	–
O=C(COC(=O)Cc1ccc(Br)cc1)NCc1ccccc1	inactive	–
CSCCC(c1nc2ccccc2[nH]1)n1c(-c2cc(C(F)(F)F)cc(C(F)(F)F)c2)nc2ccccc21 (configuration not stated)	active: 20.6 µM	–
O=C1OC(Cc2ccccc2)(c2ccccc2)c2ccccc21 (configuration not stated)	inactive	–
Cc1ccc(NC(=O)c2cccc(S(C)(=O)=O)c2)cc1	inconclusive [rising, partial curve]	–
CCOC(=O)c1oc2ccccc2c1NC(=O)CCl	inconclusive [cytotoxic, single point]	–
O=C(Nc1ccc2c(c1)OCO2)Nc1ccccc1F	inconclusive [cytotoxic, single point]	–
CCOc1ccc(CCNC(=O)COC(=O)COc2ccc(C(=O)CC)cc2)cc1OCC	inactive	–
O=C(c1ccc2c3n(nc2c1)-c1ccccc1CO3)N1CCOCC1	active: 23.1 µM	–
COc1ccccc1CNC(=O)c1nn(-c2ccc(C)cc2)c(=O)c2c1c1ccccc1n2C	inconclusive [cytotoxic, single point]	–
Cc1cnc(NC(=O)CCCSc2nc3ccccc3s2)s1	–	inconclusive: -30.1% [cytotoxic]
Cc1cccc(C)c1OCc1nc2ccccc2c(=O)n1/N=C/c1c[nH]c2ccccc12	inconclusive [cytotoxic, single point]	–

Compound	Potency	activity, negative = toxicity
COc1ccc(-n2nc(C(=O)NCc3ccco3)c3ccccc3c2=O)cc1	active: 10 µM	–
O=C1/C(=C/c2ccncc2)SC(=S)N1Cc1ccccc1	active: 18.4 µM	–
COc1cccc(C(=O)Nc2nc(-c3ccc(S(=O)(=O)N4CCOCC4)cc3)cs2)c1	inactive	–
O=C(Nc1ccc2ccccc2n1)c1ccc(Cl)cc1	inconclusive [cytotoxic, single point]	–
O=C(CSc1nc2ccc(NC(=O)CSc3nnnn3-c3ccccc3)cc2s1)Nc1ccccc1	inconclusive [cytotoxic, single point]	–
O=C(NNC(=O)c1cc(-c2ccncc2)nc2ccccc12)c1ccccc1O	inconclusive [cytotoxic, partial curve]	–
COc1ccc(NC(=O)CC2C(=O)NCCN2C(=O)Nc2ccc(C(F)(F)F)cc2)cc1 (configuration not stated)	inconclusive [cytotoxic, single point]	–
CCC(=C(c1ccc(O)cc1)c1ccc(OCCN(C)C)cc1)c1ccccc1	inactive	–
O=C(NCc1ccc(Cl)cc1)c1noc2c1CCCC2	inconclusive [cytotoxic, single point]	–
COC(=O)c1c(C)cc(O)c(C=O)c1O	inconclusive [cytotoxic, single point]	–
N#CCCN(Cc1ccccc1)C(=S)NC(=O)c1ccccc1	active: 1.12 µM	–
Cc1cc2c(cc1C)C(c1cc(Br)ccc1F)CC(=O)N2 (configuration not stated)	inconclusive [cytotoxic, single point]	–
Cc1nn(-c2ccccc2)cc1/C=N/NC(=O)c1cccs1	inactive	–
CCOC(=O)c1ccc(N2CCCCC2)c(NS(=O)(=O)c2ccc(C)cc2)c1	inconclusive [cytotoxic, single point]	–
COc1cc(NC(=O)c2ccc(Br)o2)ccc1NC(=O)c1ccccc1Cl	inconclusive [cytotoxic, single point]	–
CCn1c(C(=O)N2CCCC(C(=O)NCCc3ccc(C)cc3)C2)cc2sccc21 (configuration not stated)	inconclusive [cytotoxic, single point]	–
Cc1ncccc1C(=O)N1CCCC(c2cc(C(=O)Nc3ccc(C(C)(C)C)cc3)no2)C1 (configuration not stated)	inconclusive [cytotoxic, partial curve]	–
CCCCn1nnnc1C(c1ccc(OC)cc1)N1CCN(C/C=C/c2ccccc2)CC1 (configuration not stated)	inconclusive [cytotoxic, single point]	–
CCOc1ccc(NC(=O)C(C)Oc2ccccc2C(=O)Nc2ccc(C)c(Cl)c2)cc1 (configuration not stated)	inconclusive [cytotoxic, single point]	–
O=C(O)C1CCN(S(=O)(=O)Cc2ccccc2)CC1	inactive	–
COC(=O)CCCCCCCCC(O)CN(C)C (configuration not stated)	inconclusive [rising, partial curve]	–
CCOc1ccccc1N1CCN(C(=O)c2cc(C)oc2C)CC1	inconclusive [cytotoxic, single point]	–
COc1ccc2nc(C)cc(Nc3ccc(N4CCN(C)CC4)cc3)c2c1	inconclusive [cytotoxic, partial curve]	–
CCC(=O)N1Cc2cc(C(=O)NCC(F)(F)F)nc(-c3cccc(-c4cncnc4)c3)c2[C@@H]1CCO	inconclusive [cytotoxic, single point]	–

Compound	Potency	activity, negative = toxicity
CCOCCCNC(=O)c1ccc2c(c1)N(CC)C(=O)c1ccccc1S2=O (configuration not stated)	inactive	–
CC(C)S(=O)(=O)c1csc(NC(=O)Nc2ccc(Cl)cc2)c1Cl	inconclusive [cytotoxic, single point]	–
Cc1ccc(S(=O)(=O)N2CCN(S(=O)(=O)N3CCC(C)CC3)CC2)cc1C	inactive	–
COc1ccc2nc(SCC(=O)N3CCCCCC3)c(C#N)cc2c1	inactive	–
O=C(COc1c(Br)cc(Br)c2cccnc12)N1CCc2ccccc2C1	inconclusive [cytotoxic, single point]	–
CC(C)CCn1c(-c2nonc2N)nc2ccccc21	inconclusive [cytotoxic, single point]	–
O=C(CCC(=O)c1cccs1)NCc1cccc(Cl)c1	inactive	–
CC(=O)Nc1nonc1-c1nc2ccccc2n1Cc1ccccc1	active: 11.6 µM	–
CCC(=O)Nc1cccc(-n2nnnc2SCC(=O)c2ccc(C)c(C)c2)c1	inconclusive [cytotoxic, single point]	–
CNC(=O)CN(c1ccc(C(C)C)cc1)S(C)(=O)=O	inactive	–
CCOC(=O)c1ccc(Nc2nc(C(=O)OCC)nc3ccccc23)cc1	inconclusive [cytotoxic, single point]	–
CCCOc1ccccc1C1CC(=O)Nc2cc3c(cc21)OCCO3 (configuration not stated)	active: 1.46 µM	–
Cc1ccc(C(=O)Nc2cccc(C(=O)O)c2)cc1	inconclusive [cytotoxic, partial curve]	–
Cc1cc(OCC(=O)Nc2ccncc2)cc(C)c1Br	active: 10.3 µM	–
COC(=O)C1=CN(c2ccccc2OC)C(N)=C(C#N)C1c1cccc([N+](=O)[O-])c1 (configuration not stated)	active: 1.84 µM	–
Cc1cc(NC(=O)COC(=O)C2=NN(c3ccccc3)C(=O)CC2)c([N+](=O)[O-])cc1C	inactive	–
COc1cccc(-c2cc(C(F)(F)F)c(C#N)c(=O)[nH]2)c1	inactive	–
COc1ccc(CCN(C)C(=O)c2cc(-c3ccccc3)nc3ccccc23)cc1OC	inactive	–
COc1ccc(NC(=O)N2CCCC(C(=O)NCCc3ccccc3)C2)cc1 (configuration not stated)	inactive	–
Cc1c(CCC(=O)N[C@@H](CC(C)C)C(=O)O)c(=O)oc2cc3oc4c(c3cc12)CCCC4	inactive	–
Clc1ccc(C2=C3CCCCn4c(-c5ccccc5)c[n+](c43)C2)cc1	inconclusive [cytotoxic, single point]	–
COc1cccc2c3c(c(C)nc12)CCN3c1ccccc1	inconclusive [cytotoxic, partial curve]	–
Cc1ccc(NC(=O)CN(C)CC(=O)Nc2cccc(F)c2)cc1S(=O)(=O)N1CCCCCC1	inconclusive [cytotoxic, single point]	–
CCCS(=O)(=O)NC(=O)C1(C)CCN(C(=O)c2cc(C)on2)C1 (configuration not stated)	inconclusive [cytotoxic, full curve, poor fit]	–
